Experimental findings from PMC12820563, “FoxP3 forms a head-to-head dimer in vivo and stabilizes its multimerization on adjacent microsatellites” are described below.

The other results are listed elsewhere or left out.

This experiment addresses T1, MBP-FoxP1dN (Mus musculus, UniProt P58462 326-579).
T1 sequence: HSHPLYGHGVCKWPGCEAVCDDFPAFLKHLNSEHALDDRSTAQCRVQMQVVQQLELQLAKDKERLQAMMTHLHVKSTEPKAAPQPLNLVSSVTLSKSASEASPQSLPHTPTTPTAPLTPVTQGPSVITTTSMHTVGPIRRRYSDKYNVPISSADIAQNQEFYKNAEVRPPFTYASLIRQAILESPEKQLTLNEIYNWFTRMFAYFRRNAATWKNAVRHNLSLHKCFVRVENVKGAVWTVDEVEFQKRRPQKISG
Kind of experiment: PD-seq (MBP pull-down with sequencing); 20 mM Tris-HCl pH 7.5, 100 mM NaCl, 1.5 mM MgCl2, 0.4 uM protein, 0.1 uM dsDNA library, 30 min, room temperature, amylose pull-down; high values mean tight binding. As to conditions: protein: recombinant; tags: His6-MBP; chain copies: 2; dsDNA, one strand shown. Put shortly:
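A fragment of mouse FoxP3 or FoxP1 without its N-terminus, carrying a His6-MBP tag and produced in E. coli, was combined at 0.4 µM with a 0.1 µM degenerate double-stranded DNA library filled in with Klenow. The mixture sat for 30 min at room temperature in Tris pH 7.5 buffer containing NaCl and MgCl2. Protein–DNA complexes were captured on amylose resin, washed three times, and the DNA was freed with proteinase K, barcoded by PCR and sequenced on Illumina. Binding is expressed as reads-per-million enrichment of pull-down over input, with replicates pooled.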
Consider “GATGATTGTTCTCCCAGCTGATGAATTCCACTGCTCGAGTAAACAAATTTTCCTAATCTTTCTGTTCAAGCGCCATCTAC”, for which the binding signal was 0.743 RPM ratio (pull-down/input).

For the sequence “GATGATTGTTCTCCCAGCTGATGAATTGTGGATATCGAGTAAACAAATTTTCCTAATCTTTCTGTTCAAGCGCCATCTAC”, the binding signal was 1.12 RPM ratio (pull-down/input).

In the case of “GATGATTGTTCTCCCAGCTGATGAATTGCATACATCGAGTAAACAAATTTTCCTAATCTTTCTGTTCAAGCGCCATCTAC”, the binding signal is 1.37 RPM ratio (pull-down/input).

With “GATGATTGTTCTCCCAGCTGATGAATTAGGGAACTCGAGTAAACAAATTTTCCTAATCTTTCTGTTCAAGCGCCATCTAC”, the binding signal was 0.86 RPM ratio (pull-down/input).

With “GATGATTGTTCTCCCAGCTGATGAATTGCCGGCGTCGAGTAAACAAATTTTCCTAATCTTTCTGTTCAAGCGCCATCTAC”, the binding signal is 0.923 RPM ratio (pull-down/input).

In the case of “GATGATTGTTCTCCCAGCTGATGAATTCCGACAATCGAGTAAACAAATTTTCCTAATCTTTCTGTTCAAGCGCCATCTAC”, the binding signal was 1.08 RPM ratio (pull-down/input).

For “GATGATTGTTCTCCCAGCTGATGAATTTCGTACATCGAGTAAACAAATTTTCCTAATCTTTCTGTTCAAGCGCCATCTAC”, the binding signal is 1.07 RPM ratio (pull-down/input).

As for “GATGATTGTTCTCCCAGCTGATGAATTATTTTATTCGAGTAAACAAATTTTCCTAATCTTTCTGTTCAAGCGCCATCTAC”, the binding signal is 1.22 RPM ratio (pull-down/input).

Consider “GATGATTGTTCTCCCAGCTGATGAATTTGGGGCATCGAGTAAACAAATTTTCCTAATCTTTCTGTTCAAGCGCCATCTAC”, for which the binding signal was 1.06 RPM ratio (pull-down/input).

“GATGATTGTTCTCCCAGCTGATGAATTATCTCGATCGAGTAAACAAATTTTCCTAATCTTTCTGTTCAAGCGCCATCTAC”: the binding signal was 0.93 RPM ratio (pull-down/input).

As for “GATGATTGTTCTCCCAGCTGATGAATTGGGAGGGTCGAGTAAACAAATTTTCCTAATCTTTCTGTTCAAGCGCCATCTAC”, the binding signal was 0.737 RPM ratio (pull-down/input).

In the case of “GATGATTGTTCTCCCAGCTGATGAATTGCCCCATTCGAGTAAACAAATTTTCCTAATCTTTCTGTTCAAGCGCCATCTAC”, the binding signal was 0.959 RPM ratio (pull-down/input).

As to “GATGATTGTTCTCCCAGCTGATGAATTGGGCTAGTCGAGTAAACAAATTTTCCTAATCTTTCTGTTCAAGCGCCATCTAC”, the binding signal was 0.807 RPM ratio (pull-down/input).

As to “GATGATTGTTCTCCCAGCTGATGAATTGAAGACGTCGAGTAAACAAATTTTCCTAATCTTTCTGTTCAAGCGCCATCTAC”, the binding signal was 0.815 RPM ratio (pull-down/input).

“GATGATTGTTCTCCCAGCTGATGAATTGAAGTAGTCGAGTAAACAAATTTTCCTAATCTTTCTGTTCAAGCGCCATCTAC”: the binding signal is 0.816 RPM ratio (pull-down/input).

For the sequence “GATGATTGTTCTCCCAGCTGATGAATTTGGTGAGTCGAGTAAACAAATTTTCCTAATCTTTCTGTTCAAGCGCCATCTAC”, the binding signal is 0.843 RPM ratio (pull-down/input).

In the case of “GATGATTGTTCTCCCAGCTGATGAATTCTCAGGATCGAGTAAACAAATTTTCCTAATCTTTCTGTTCAAGCGCCATCTAC”, the binding signal was 0.775 RPM ratio (pull-down/input).

For “GATGATTGTTCTCCCAGCTGATGAATTCGATTTGTCGAGTAAACAAATTTTCCTAATCTTTCTGTTCAAGCGCCATCTAC”, the binding signal is 1.07 RPM ratio (pull-down/input).

For “GATGATTGTTCTCCCAGCTGATGAATTTCAGCGATCGAGTAAACAAATTTTCCTAATCTTTCTGTTCAAGCGCCATCTAC”, the binding signal is 0.822 RPM ratio (pull-down/input).

Regarding “GATGATTGTTCTCCCAGCTGATGAATTGATATGATCGAGTAAACAAATTTTCCTAATCTTTCTGTTCAAGCGCCATCTAC”, the binding signal is 1.1 RPM ratio (pull-down/input).

Regarding “GATGATTGTTCTCCCAGCTGATGAATTATCAGGCTCGAGTAAACAAATTTTCCTAATCTTTCTGTTCAAGCGCCATCTAC”, the binding signal is 0.854 RPM ratio (pull-down/input).

For the sequence “GATGATTGTTCTCCCAGCTGATGAATTGTAATCCTCGAGTAAACAAATTTTCCTAATCTTTCTGTTCAAGCGCCATCTAC”, the binding signal is 0.988 RPM ratio (pull-down/input).

Consider “GATGATTGTTCTCCCAGCTGATGAATTCCCAGTGTCGAGTAAACAAATTTTCCTAATCTTTCTGTTCAAGCGCCATCTAC”, for which the binding signal was 0.817 RPM ratio (pull-down/input).

As to “GATGATTGTTCTCCCAGCTGATGAATTCGGTTAATCGAGTAAACAAATTTTCCTAATCTTTCTGTTCAAGCGCCATCTAC”, the binding signal is 0.879 RPM ratio (pull-down/input).

As to “GATGATTGTTCTCCCAGCTGATGAATTGTGGTCATCGAGTAAACAAATTTTCCTAATCTTTCTGTTCAAGCGCCATCTAC”, the binding signal is 1.18 RPM ratio (pull-down/input).

On to “GATGATTGTTCTCCCAGCTGATGAATTTACATCCTCGAGTAAACAAATTTTCCTAATCTTTCTGTTCAAGCGCCATCTAC”, for which the binding signal is 1.26 RPM ratio (pull-down/input).

As to “GATGATTGTTCTCCCAGCTGATGAATTATAGTAGTCGAGTAAACAAATTTTCCTAATCTTTCTGTTCAAGCGCCATCTAC”, the binding signal is 0.985 RPM ratio (pull-down/input).

Regarding “GATGATTGTTCTCCCAGCTGATGAATTGGATCAGTCGAGTAAACAAATTTTCCTAATCTTTCTGTTCAAGCGCCATCTAC”, the binding signal was 0.801 RPM ratio (pull-down/input).

For the sequence “GATGATTGTTCTCCCAGCTGATGAATTGGGCAACTCGAGTAAACAAATTTTCCTAATCTTTCTGTTCAAGCGCCATCTAC”, the binding signal is 0.834 RPM ratio (pull-down/input).

Consider “GATGATTGTTCTCCCAGCTGATGAATTGCATAGATCGAGTAAACAAATTTTCCTAATCTTTCTGTTCAAGCGCCATCTAC”, for which the binding signal is 1.08 RPM ratio (pull-down/input).

As to “GATGATTGTTCTCCCAGCTGATGAATTCTCATGCTCGAGTAAACAAATTTTCCTAATCTTTCTGTTCAAGCGCCATCTAC”, the binding signal is 0.856 RPM ratio (pull-down/input).
